# The whole screen tested about 310,000 compounds, of which about 2,200 (0.71%) showed an effect of 50% or more. The effect is printed as a negative number. Some of the results follow.
# Target: human ether-à-go-go-related gene (hERG) potassium channel (human, UniProt Q12809)
# Assay: primary screen, population patch clamp on CHO cells stably expressing hERG
# human ether-à-go-go-related gene (hERG) potassium channel, sequence (Q12809 whole entry, looked up): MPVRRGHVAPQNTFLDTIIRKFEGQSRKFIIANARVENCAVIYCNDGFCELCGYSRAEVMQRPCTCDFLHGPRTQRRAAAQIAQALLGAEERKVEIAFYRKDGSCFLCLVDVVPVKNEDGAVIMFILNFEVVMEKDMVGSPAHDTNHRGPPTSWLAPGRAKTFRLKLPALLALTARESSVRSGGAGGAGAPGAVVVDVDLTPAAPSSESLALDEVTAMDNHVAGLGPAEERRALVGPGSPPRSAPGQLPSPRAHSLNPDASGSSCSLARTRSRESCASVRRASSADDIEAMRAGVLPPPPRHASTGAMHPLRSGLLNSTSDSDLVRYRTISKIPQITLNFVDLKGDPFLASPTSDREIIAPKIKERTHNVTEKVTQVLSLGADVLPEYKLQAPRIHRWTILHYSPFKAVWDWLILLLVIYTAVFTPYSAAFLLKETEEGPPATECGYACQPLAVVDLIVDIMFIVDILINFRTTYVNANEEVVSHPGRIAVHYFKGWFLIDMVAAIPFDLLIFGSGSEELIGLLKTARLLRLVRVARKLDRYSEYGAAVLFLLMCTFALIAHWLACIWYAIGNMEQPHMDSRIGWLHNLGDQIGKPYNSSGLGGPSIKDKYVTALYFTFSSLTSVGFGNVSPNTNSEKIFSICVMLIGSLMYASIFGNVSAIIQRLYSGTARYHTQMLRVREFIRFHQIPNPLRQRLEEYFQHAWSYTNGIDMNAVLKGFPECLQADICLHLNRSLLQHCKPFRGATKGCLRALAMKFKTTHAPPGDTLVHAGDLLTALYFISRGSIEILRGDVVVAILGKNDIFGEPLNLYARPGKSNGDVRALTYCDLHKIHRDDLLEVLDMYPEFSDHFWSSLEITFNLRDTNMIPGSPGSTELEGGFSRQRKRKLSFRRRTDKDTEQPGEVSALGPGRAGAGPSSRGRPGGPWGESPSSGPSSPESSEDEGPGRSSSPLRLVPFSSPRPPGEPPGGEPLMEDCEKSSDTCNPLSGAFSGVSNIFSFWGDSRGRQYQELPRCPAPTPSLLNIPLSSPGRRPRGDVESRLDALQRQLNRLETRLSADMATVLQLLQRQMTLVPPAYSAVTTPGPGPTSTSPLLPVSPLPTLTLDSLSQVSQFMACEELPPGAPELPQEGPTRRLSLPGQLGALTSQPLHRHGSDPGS
row,Structure (SMILES),"hERG current change (%, negative = inhibition) at 1uM"
1,CC(C)OC(=O)CC1C(=O)NCCN1C(=O)COc1ccc(C(C)(C)C)cc1 (stereo not shown),14.6%
2,COc1ccc(NC(=S)NNc2ccc([N+](=O)[O-])cc2S(=O)(=O)Nc2ccc(C)cc2C)cc1,1.69%
3,CN(/N=C/c1cc(Br)cc(Br)c1O)c1ccccc1,28.8%
4,Cc1c(C(=O)N2CCOCC2)[nH]c2c1C(=O)CC(c1ccccc1Cl)C2 (stereo not shown),2.29%
5,Cc1ccn2cc(CNS(=O)(=O)c3ccc(Cl)s3)nc2c1,-0.135%
6,CC1(C)S[C@@H]2[C@H](NC(=O)Cc3ccccc3)C(=O)N2[C@H]1C(=O)O,3.75%
7,S=c1[nH]nc(-c2ccc3ccccc3n2)n1Cc1ccccc1,10.9%
8,CCS(=O)(=O)c1ccc(O)c(NC(=O)Nc2ccccc2OC)c1,2.26%
9,COc1ccccc1-c1nnc(SCC(=O)O)n1C,10.3%
10,Cc1nn(CC(=O)N2CCC(N3CCCCC3)CC2)c(=O)c2c1sc1ccccc12,2.41%
11,O=C(CSc1nnnn1-c1cccc(O)c1)NC1CC1,28%
12,CCSc1nc2ccccc2n1C(=O)c1ccc(S(=O)(=O)N2CCCCC2)cc1,-4.43%
13,O=C(Cn1cc2c(n1)CCCC2)NC1CCCCCC1,6.31%
14,COc1ccc(C2N(C(=O)c3ccccc3)CCN2C(=O)c2ccc(C)cc2)cc1 (stereo not shown),-4.15%
15,O=C(CCNC(=O)c1ccc([N+](=O)[O-])cc1)Nc1cc(Cl)ccc1N1CCOCC1,-18.6%
16,COc1ccc(N(C(=O)c2ccco2)C(C(=O)NC2CCCC2)c2cccs2)cc1 (stereo not shown),-0.12%
17,CCOc1ccc(OCCC(=O)Nc2ccc3c(c2)OCO3)cc1,11.1%
18,CN(CC1CCCN(CCc2ccccc2F)C1)C(=O)c1ccoc1 (stereo not shown),-25.9%
19,Cc1cc(C)cc(-n2c(C)cc(C(=O)CSc3nnnn3C)c2C)c1,15.4%
20,N/C(=N\OC(=O)/C=C/c1ccc(Br)cc1)c1ccccn1,4.54%
21,COC(=O)c1cc(S(=O)(=O)N2CCCC2)c(Cl)cc1Cl,8.41%
22,O=C(Cn1nc(-c2ccccc2)ccc1=O)N1CCOCC1,1.45%

row,Structure (SMILES),"hERG current change (%, negative = inhibition) at 1uM"
1,CN(CC(O)COCc1cccs1)C1CCCCC1 (stereo not shown),3.27%
2,N/C(=N\OC(=O)c1ccc(Cl)c([N+](=O)[O-])c1)c1ccccn1,-2.58%
3,O=C(CCC(=O)N1CCSc2ccccc21)NCc1ccccc1,7.62%
4,O=C(NCCc1ccccc1)C1CCC(=O)N1CCc1ccccc1 (stereo not shown),10.1%
5,Cc1occc1C(=O)N/N=C/c1cccc2ccccc12,13.5%
6,COC(=O)CNc1nc(Cl)nc(Nc2ccc(Cl)cc2)n1,25%
7,COc1ccc(OC)c(-n2c(=S)[nH]c3cc(C(=O)N(C)Cc4ccccc4)ccc3c2=O)c1,10.9%
8,O=C(N/N=C/c1ccncc1)c1ccccn1,8.56%
9,O=C(c1ccccc1)N1CCN(S(=O)(=O)N2CCCCCC2)CC1,9.57%
10,O=C1CCCC(O)=C1C1C2=C(CCCC2=O)OC2=C1C(=O)CCC2,17%
11,Nc1ncc(-c2ccccc2)n1CC1CCCO1 (stereo not shown),8.5%
12,OCC1C2c3ccccc3C(c3ccccc32)C1CO (stereo not shown),11.6%
13,CCOC(=O)CCC(=O)Nc1ccc([N+](=O)[O-])cc1C,4.89%
14,CC(C)CNC(=O)c1cc2nc(C3CC3)cc(C(F)(F)F)n2n1,15.5%
15,CCOC(=O)c1nc(-c2ccccc2)oc1N(C)C,-3.84%
16,CCC(C(=O)N1CCC(C(N)=O)CC1)n1nc(C)n2c(cc3occc32)c1=O (stereo not shown),-1.4%
17,CS(=O)(=O)NCCCNc1ccc(C(F)(F)F)cc1[N+](=O)[O-],0.672%
18,O=c1c(C=NCCCO)c(-c2ccccc2)[nH]n1-c1nc2ccccc2s1,-2.36%
19,Nc1ncc(Br)cc1Br,11.1%
20,O=C(c1ccccc1)C1CN(Cc2ccccc2)CCC1(O)c1ccccc1 (stereo not shown),14.3%
21,CN(C)c1ccc(C(=O)NC2(N3CCC3=O)CCCC2)cc1,11.2%
22,O=C(NCCN1CCN(c2ccccc2)CC1)c1ccc2c(c1)[nH]c(=S)n1c3ccccc3nc21,6.72%

row,Structure (SMILES),"hERG current change (%, negative = inhibition) at 1uM"
1,O=C(NCCc1cccc(Cl)c1)c1cccc([N+](=O)[O-])c1,2.77%
2,N=c1c(C(=O)NC2CCCCC2)cc2c(=O)n3ccccc3nc2n1Cc1cccnc1,-50.6%
3,COc1ccccc1CN1CC(C(=O)NC2CCOCC2)CCC1=O (stereo not shown),15%
4,O=C(CN1CCCC1)Nc1ccccc1Sc1ccccc1,4.91%
5,CCC(CC)C(=O)Nc1ccc(C(=O)c2ccccc2)cc1,22.6%
6,Cl.OCC(CO)(CO)NCc1ccc(-c2ccccc2)cc1,9.58%
7,CCOc1ccccc1N1CCN(c2nc3ccccc3nc2C(C#N)C(=O)OC)CC1 (stereo not shown),14.2%
8,COc1ccccc1NC(=O)c1ccc2snnc2c1,2.46%
9,Cc1c(NS(=O)(=O)c2cccc(C(=O)O)c2)c(=O)n(-c2ccccc2)n1C,14.3%
10,COCCN1CCN(C(=O)C2CCC(=O)N(CCc3ccccc3)C2)CC1 (stereo not shown),9.1%
11,COc1cccc(NC(=S)N(CCc2ccc(OC)c(OC)c2)Cc2ccccn2)c1,0.386%
12,c1ccc(-c2noc(-c3cccc4ccccc34)n2)nc1,9.47%
13,O=C(c1cn(CC(=O)N2CCCC2)c2ccccc12)C1CCCCC1,12.5%
14,COc1ccc(-n2nc(C(=O)NCC(=O)Nc3cccc(NC(C)=O)c3)c3ccccc3c2=O)cc1,8.77%
15,Nc1scc2c(C(=O)N/N=C/c3ccc(Cl)cc3)nn(-c3ccccc3)c(=O)c12,12.5%
16,CCOC(=O)C1CCN(C(=S)Nc2ccc(CC)cc2)CC1,-3.06%
17,O=C(c1cnn2c(C(F)(F)F)cc(-c3ccco3)nc12)N1CCc2ccccc2C1,8.21%
18,O=C1NC(=O)C(=Cc2ccc(-c3ccc(Cl)cc3)o2)C(=O)N1,10.7%
19,O=S(=O)(NC1CC1)c1ccc(S(=O)(=O)N2CCCC3(CCCCC3)C2)cc1,13.8%
20,Cc1ccc(S(=O)(=O)N(C)C)cc1NC(=O)C(C)N(C)CCOc1ccc(Cl)cc1 (stereo not shown),-1.99%
21,CC1=CC(c2ccccc2)n2nc(N3C(=O)C4CC=CCC4C3=O)nc2N1 (stereo not shown),4.78%
22,O=C(COC(=O)CNC(=O)c1ccccc1F)NC12CC3CC(CC(C3)C1)C2,7.94%

row,Structure (SMILES),"hERG current change (%, negative = inhibition) at 1uM"
1,CCC(CC)C(=O)N=C1SC2CS(=O)(=O)CC2N1CCc1ccc(OC)cc1 (stereo not shown),-8.53%
2,CCOP(=O)(OCC)/C(=N/OC(=O)c1ccc(OC)cc1)C(N)=O,23.8%
3,O=C(N/N=C/C=C/c1ccccc1)c1ccc(Br)cc1,-0.71%
4,O=C1CC(C(=O)Nc2ccccc2)C2(CCCC2)O1 (stereo not shown),14.2%
5,COc1ccc(OC)c(C2CC(c3ccc(NS(C)(=O)=O)cc3)=NN2C(=O)c2ccccc2)c1 (stereo not shown),-47.8%
6,CCCNC(=O)C1CCN(c2ccc(S(=O)(=O)N3CCOCC3)cc2Cl)CC1,12.5%
7,O=C(CCN1C(=O)S/C(=C\c2ccc(Cl)cc2)C1=O)Nc1ccc(C(=O)O)cc1,13.9%
8,O=C(Nc1nccs1)c1cc2c(s1)CCCCC2,12.1%
9,Cc1ccc(Nc2nc(NCCO)nc3c2cnn3C)cc1Cl,14.5%
10,CCN(c1cccc(C(F)(F)F)c1)S(=O)(=O)c1ccc2c(c1)CCN2C(C)=O,9.81%
11,Cc1ccc(S(=O)(=O)c2nnn3c2nc(N2CCN(c4ccccn4)CC2)c2ccccc23)cc1C,16.3%
12,O=C(OCc1ccc(F)cc1)c1cc(S(=O)(=O)N2CCCCC2)ccc1N1CCOCC1,4.59%
13,COc1cccc(CN2CCNC(=O)C2CC(=O)NCC2CCOCC2)c1 (stereo not shown),10.6%
14,O=c1[nH]c2ccccc2cc1-c1nnn(-c2ccc(Cl)c(Cl)c2)n1,2.29%
15,COc1ccc(CCN(C)C(=O)N2CCOCC2)cc1OC,12%
16,C=CCOC(=O)C1=C[C@H](C2CCCCC2)C[C@H](OCc2ccc(CO)cc2)O1,15%
17,CCOC(=O)c1ccc(NC(=O)CN2C(=O)C(CC)SC(CC)C2=O)cc1 (stereo not shown),1.69%
18,O=C1[C@H]2[C@@H](c3ccc(Cl)cc3)N3C(=O)N(c4cccc(F)c4)C(=O)[C@@]3(Cc3ccc(Cl)cc3)[C@H]2C(=O)N1C1CCCCC1,2.05%
19,CCn1nnnc1SCC(=O)Nc1ccc2c(c1)OCO2,7.22%
20,Cn1c(SCc2cccnc2)nnc1-c1c[nH]c2ccccc12,8.78%
21,O=C(CN1CCCCC1)Nc1ccc(NC(=O)c2ccc(Cl)cc2)cc1Cl,8.32%
22,CCCNc1nc(-c2ccccc2)c(C(=O)OCC)cc1C#N,1.17%
